# Laboratory results: PubChem BioAssay AID2451 (National Center for Advancing Translational Sciences (NCATS), 2010)
# The campaign covered roughly 290,000 compounds. About 2,100 (0.72%) were called active. Inconclusive means that the source gave no clear call. Such entries were picked first, then a sample of the others. Calls come from the whole dose curve; as a rule, active = well fitted inhibition curve with a large enough effect; inconclusive = small, poorly fitted or top-dose-only effect, or effect the other way; inactive = flat fitted curve, though single readings scatter. Where the call is inconclusive, the potency comes from a doubtful curve fit.
# Target: Fructose-bisphosphate aldolase (Giardia intestinalis (strain ATCC 50803 / WB clone C6)) (UniProt A8B2U2)
# Experiment: qHTS Assay for Inhibitors of Fructose-1,6-bisphosphate Aldolase from Giardia Lamblia; note: nearly all actives have a fitted effect of over 55% in size
# Conditions: purified Giardia FBPA; activity, negative = inhibition: at 59.6 µM (top of the series) unless noted
# Outline: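 40 nM FBPA preincubated 10 min at RT with compound (up to 57.5 uM final), then substrate plus GAPDH/TPI/NAD/arsenate coupling and diaphorase/resazurin added. Fluorescence read after 20 min at RT, 525/598 nm.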
# % is set by controls: 0 for no effect and ±100 for the full control effect; potency is the fitted concentration of half-maximal effect; tags give direction and shape of the fitted curve.
# UniProt A8B2U2, sequence (A8B2U2 whole entry, looked up): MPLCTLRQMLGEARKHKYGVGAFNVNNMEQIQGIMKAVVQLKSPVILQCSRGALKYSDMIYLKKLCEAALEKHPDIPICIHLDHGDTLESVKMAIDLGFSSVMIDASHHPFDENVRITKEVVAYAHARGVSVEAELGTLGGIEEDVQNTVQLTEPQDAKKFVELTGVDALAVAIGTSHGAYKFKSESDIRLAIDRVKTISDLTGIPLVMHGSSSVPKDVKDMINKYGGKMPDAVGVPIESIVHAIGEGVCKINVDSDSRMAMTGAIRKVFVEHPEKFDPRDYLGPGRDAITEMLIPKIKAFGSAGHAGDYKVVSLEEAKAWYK
Structure (SMILES),Potency,"activity, negative = inhibition"
O=C(N/N=C/c1ccc[nH]1)c1cc2ccccc2cc1O,"inconclusive: 14.1 µM [inhibitor, partial curve]",
O=[N+]([O-])c1ccccc1S(=O)(=O)N1CCN(CC2CC3C=CC2C3)CC1 (stereo not given),"inconclusive: 17.7 µM [inhibitor, partial curve]",
Cc1ccc(NC(=O)C2Cc3ccccc3CN2C(=O)c2ccccc2)cc1Cl (stereo not given),"inconclusive: 15.8 µM [inhibitor, single point]",
Cn1c(NNC(=O)c2ccc(C(C)(C)C)cc2)cc(=O)n(C)c1=O,"inconclusive: 17.7 µM [inhibitor, partial curve]",
Cc1[nH]n(-c2ccccc2)c(=O)c1N=Nc1cccc(S(=O)(=O)N2CCOCC2)c1,"inconclusive: 4.46 µM [inhibitor, full curve]",
CCOC(=O)C1(Cc2cccc(F)c2)CCN(Cc2cnc(C)s2)CC1,,inactive: -0.279%
O=C(CCN1CCN(c2ccccc2)CC1)N/N=C/c1ccc(O)c(O)c1O,"inconclusive: 7.06 µM [inhibitor, partial curve]",
NS(=O)(=O)c1ccc(CCNCc2cc(Cl)ccc2OCc2ccccc2)cc1,"inconclusive: 39.8 µM [inhibitor, single point]",
C=CCN1CCc2cccc3c2[C@H]1Cc1ccc(O)c(O)c1-3,"inconclusive: 39.8 µM [inhibitor, single point]",
Nc1c(C(=O)c2ccc(Cl)cc2)sc2nsc(SCCN3CCOCC3)c12,"inconclusive: 2.51 µM [inhibitor, partial curve, poor fit]",
Cc1cccc(N2CCN(C(=S)c3ccccc3)CC2)c1,"inconclusive: 31.5 µM [inhibitor, single point]",
Cc1ccccc1N1CCN(S(=O)(=O)c2nnc(NC(=O)CC(C)C)s2)CC1,"inconclusive: 28.2 µM [inhibitor, single point]",
CCN1CCN(c2nc(NCCO)c3ccccc3n2)CC1,"inconclusive: 11.2 µM [inhibitor, partial curve]",
CN(C)CC(O)CN1C(=O)NC(C)(C)C1=O (stereo not given),,inactive: -0.695%
Cc1nc2ccc(NC(=O)c3cncc(Br)c3)cc2s1,,inactive: 0.758%
O=C(NCc1ccco1)c1cc2c(s1)CCCCC2,,inactive: 20.5%
COC(=O)C1=C(C)NC(C)=C(C(=O)OC)C1c1ccc(OC(=O)c2ccco2)cc1,"inconclusive: 31.5 µM [activator, single point]",
Cc1ccc(C(=O)O)cc1NC(=S)NCCc1ccccc1,"inconclusive: 25.1 µM [inhibitor, single point]",
CC(=O)c1cccc(NC(=O)Cc2cccs2)c1,,inactive: -3.78%
CCC1c2ccc(C)n2CCN1C(=O)Nc1ccc(F)cc1 (stereo not given),"inconclusive: 15.8 µM [inhibitor, partial curve]",
Cc1ccc(SCCN2CCN(Cc3ccccc3)CC2)cc1,"inconclusive: 3.98 µM [inhibitor, full curve]",
COc1ccc(CN2CCN(S(=O)(=O)c3ccc(NC(C)=O)cc3)CC2)cc1,"inconclusive: 8.89 µM [inhibitor, partial curve]",
CC(C)(C)NC(=O)NC(=O)CN1CCN(c2ccc(O)cc2)CC1,"inconclusive: 15.8 µM [inhibitor, partial curve]",

Structure (SMILES),Potency,"activity, negative = inhibition"
COc1ccc2c(c1)-c1nc(/N=C/c3c(O)ccc4ccccc34)sc1CC2,"inconclusive: 8.89 µM [inhibitor, partial curve]",
Cn1c(CCC(=O)Nc2ccccc2F)nnc1SCC(=O)Nc1ccccc1Cl,"inconclusive: 31.5 µM [activator, single point]",
CCOC(=O)C1CCCN(C(=S)NC(=O)/C=C/c2ccc(F)cc2)C1 (stereo not given),"inconclusive: 14.1 µM [inhibitor, partial curve]",
O=C(CSc1nc(-c2ccco2)cc(C(F)(F)F)n1)N1CCN(c2cccc(Cl)c2)CC1,"inconclusive: 1.58 µM [activator, single point]",
Cc1ccc([N+](=O)[O-])c(OCCCN2CCCCCC2)c1,"inconclusive: 22.3 µM [inhibitor, partial curve]",
c1ccc2c(c1)CCN(CCCNc1nc3ccccc3n3cnnc13)C2,"inconclusive: 28.1 µM [inhibitor, single point]",
CCCCOCC(O)Cn1c(C)nc2ccccc21 (stereo not given),"inconclusive: 35.4 µM [inhibitor, single point]",
CCOc1cc(N2CCOCC2)c(OCC)cc1NC(=S)NCCCOC,"inconclusive: 19.9 µM [inhibitor, partial curve]",
COc1ccccc1N=Cc1c(C)c(C#N)c2[nH]c3ccccc3n2c1=O,"inconclusive: 15.8 µM [inhibitor, single point]",
Nc1ncc(-c2nnnn2-c2ccc(Cl)cc2)c(-c2ccc(Cl)cc2)n1,,inactive: 1.04%
COc1cc(Cn2c(N)c(C(=O)NCc3ccco3)c3nc4ccccc4nc32)cc(OC)c1OC,"inconclusive: 15.8 µM [inhibitor, partial curve]",
O=C(CCCn1c(=O)[nH]c2cc(Cl)ccc2c1=O)NCCCN1CCCC1,"inconclusive: 15.8 µM [inhibitor, single point]",
CC1CCCCN1CC(O)COCc1ccccc1 (stereo not given),,inactive: -9.33%
CCC(C)NC(=O)c1nn(Cc2ccccc2)c(=O)c2ccccc12 (stereo not given),,inactive: 0.728%
O=C(O)c1cc2nccc(-c3ccc(F)cc3)n2n1,active: 17.7 µM,
COc1ccc(Cl)cc1C(=O)NNC(=O)c1nc2nc(C)cc(C)n2n1,active: 17.7 µM,
CCN1CCN(C(C)CCc2ccccc2)CC1 (stereo not given),"inconclusive: 25.1 µM [inhibitor, single point]",
N#C/C(=C(/O)COC(=O)CSc1ccc(Cl)cc1)c1nc2ccccc2[nH]1,,inactive: -5.12%
COc1cc(OC)c(OC)cc1CN1CCN(C(=O)c2cccc3ccccc23)CC1,"inconclusive: 14.1 µM [inhibitor, partial curve]",
COc1cc(/C=N/Nc2cccc(C)c2)ccc1OC(=O)c1cccs1,,inactive: -4.21%
Cc1n[nH]c(=S)n1-c1ccccc1,"inconclusive: 25.1 µM [inhibitor, partial curve]",
CCCN(CCO)Cc1ccc(Br)cc1,"inconclusive: 15.8 µM [inhibitor, single point]",
